In the supplement of paper PMC8821664:
Structures can show the parent of a compound that is named as a salt. The list shows a part of the results. Most values come without repeats; read them as rough.

The molecules below were run on Beas-2B AQP5-HiBiT reporter cells (assay: AQP5-HiBiT luminescence relative to vehicle (ratio to vehicle); higher = higher AQP5-HiBiT protein abundance). Conditions: 10 µM; 18 h.
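Note: monoclonal Beas-2B line stably carrying CMV promoter-driven AQP5-HiBiT, 5,000 cells per well in 384-well plates, lytic HiBiT plus LgBiT NanoLuc luminescence, FDA-approved drug library screen.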

Row | SMILES | AQP5-HiBiT luminescence
1 | C[C@@H](c1ncncc1F)[C@](O)(Cn1cncn1)c1ccc(F)cc1F [Voriconazole] | 1.2
2 | CC(C)n1c(/C=C/C(O)CC(O)CC(=O)O)c(-c2ccc(F)cc2)c2ccccc21 (stereo not given) [Fluvastatin sodium salt] | 0.933
3 | CC(C)OC(=O)C(C)(C)Oc1ccc(C(=O)c2ccc(Cl)cc2)cc1 [Fenofibrate] | 1.05
4 | Cc1[nH]c2ccccc2c1CCNCc1ccc(/C=C/C(=O)NO)cc1 [Panobinostat (LBH589)] | 4.67
5 | Nc1ncn([C@@H]2O[C@H](CO)[C@@H](O)[C@H]2O)c(=O)n1 [Mylosar] | 1.61
6 | CCc1cc2c(cc1CC)CC(NC[C@H](O)c1ccc(O)c3[nH]c(=O)ccc13)C2 [Indacaterol maleate] | 1.15
7 | O=C(C1CCCCC1)N1CC(=O)N2CCc3ccccc3C2C1 (stereo not given) [Praziquantel] | 0.838
8 | CC1CNc2c(cccc2S(=O)(=O)N[C@@H](CCCNC(=N)N)C(=O)N2CC[C@@H](C)C[C@@H]2C(=O)O)C1 (stereo not given in full) [Argatroban] | 0.822
9 | O=C([O-])/C=C/C(=O)[O-].[Fe+2] [Ferrous fumarate] | 0.663
10 | Clc1ccc(COC(Cn2ccnc2)c2ccc(Cl)cc2Cl)c(Cl)c1 (stereo not given) [Miconazole] | 0.837
11 | CN(C)CCCN1c2ccccc2CCc2ccc(Cl)cc21 [Clomipramine hydrochloride] | 0.903
12 | CC[C@@]1(O)C(=O)OCc2c1cc1n(c2=O)Cc2cc3c(CN(C)C)c(O)ccc3nc2-1 [Topotecan hydrochloride] | 0.723
13 | Cc1cc(C2CCCCC2)n(O)c(=O)c1 [Ciclopirox] | 1.42
14 | CNC(=O)c1cc(Oc2ccc(NC(=O)Nc3ccc(Cl)c(C(F)(F)F)c3)c(F)c2)ccn1 [Regorafenib (BAY 73-4506)] | 0.255
15 | CCN1CCN(C(=O)N[C@@H](C(=O)N[C@@H]2C(=O)N3[C@@H]2SC(C)(C)[C@@H]3C(=O)O)c2ccccc2)C(=O)C1=O [Piperacillin sodium salt] | 1.08
16 | CCC(=O)Oc1ccc2c(c1)CCC1C2CCC2(C)C(OC(=O)CC)CCC12 (stereo not drawn) [17-Beta-Estradiol-3,17-Dipropionate] | 0.723
17 | NC(N)=Nc1nc(CSCC/C(N)=N/S(N)(=O)=O)cs1 [Famotidine] | 1.16
18 | CN1CCCCC1CCN1c2ccccc2Sc2ccc([S+](C)[O-])cc21 (stereo not given) [Mesoridazine Besylate] | 1.93
19 | O=C(O)C1=C(CSc2nnnn2CS(=O)(=O)O)CS[C@@H]2[C@H](NC(=O)[C@H](O)c3ccccc3)C(=O)N12 [Cefonicid sodium] | 1.16
20 | CC[N+](CC)(CC)CCOc1cccc(OCC[N+](CC)(CC)CC)c1OCC[N+](CC)(CC)CC [Gallamine triethiodide] | 1.43

Row | SMILES | AQP5-HiBiT luminescence
21 | CCN(CC)CCOC(=O)c1ccc(N)cc1 [Procaine hydrochloride] | 0.727
22 | O=C1Cc2cc(CCN3CCN(c4nsc5ccccc45)CC3)c(Cl)cc2N1 [Ziprasidone hydrochloride] | 1.23
23 | CCC(CC)[C@H](NC(C)=O)[C@@H]1[C@H](O)[C@@H](C(=O)O)C[C@H]1NC(=N)N [Peramivir Trihydrate] | 0.695
24 | NCCCC(N)(C(=O)O)C(F)F (stereo not given) [Eflornithine hydrochloride Monohydrate] | 0.521
25 | CC(C)N1CCN(c2ccc(OCC3COC(Cn4cncn4)(c4ccc(Cl)cc4Cl)O3)cc2)CC1 (stereo not given) [Terconazole] | 2.39
26 | CCN(CC)C(=O)C1(c2ccccc2)CC1CN (stereo not given) [Milnacipran hydrochloride] | 1.14
27 | O=C(O)c1cc(=O)c2c(OCC(O)COc3cccc4oc(C(=O)O)cc(=O)c34)cccc2o1 [Sodium cromoglycate] | 0.802
28 | CC(=O)Oc1ccc(C(c2ccc(OC(C)=O)cc2)c2ccccn2)cc1 [Bisacodyl] | 0.875
29 | Cc1c(OCC(F)(F)F)ccnc1C[S+]([O-])c1nc2ccccc2[nH]1 (stereo not given) [Lansoprazole] | 0.942
30 | CNCCC(Oc1ccc(C(F)(F)F)cc1)c1ccccc1 (stereo not given) [Fluoxetine hydrochloride] | 0.996
31 | Nc1ccn([C@H]2CC[C@@H](CO)O2)c(=O)n1 [Zalcitabine] | 0.86
32 | COC(c1ccccc1)(c1ccccc1)[C@H](Oc1nc(C)cc(C)n1)C(=O)O [Ambrisentan] | 0.752
33 | Cc1nnc(SCC2=C(C(=O)O)N3C(=O)[C@@H](NC(=O)Cn4cnnn4)[C@H]3SC2)s1 [Cefazolin sodium salt] | 1.2
34 | CC[C@H](C)C(=O)O[C@H]1C[C@@H](C)C=C2C=C[C@H](C)[C@H](CC[C@@H]3C[C@@H](O)CC(=O)O3)[C@H]21 [Lovastatin] | 0.969
35 | NC(=O)c1cccnc1 [Nicotinamide] | 0.652
36 | COC(=O)CCc1ccc(OCC(O)CNC(C)C)cc1 (stereo not given) [Esmolol hydrochloride] | 1.29
37 | CC=CC(=O)N(CC)c1ccccc1C [Crotamiton] | 1.03
38 | O=C1[C@H](CC[C@H](O)c2ccc(F)cc2)[C@@H](c2ccc(O)cc2)N1c1ccc(F)cc1 [Ezetimibe] | 0.803
39 | CC#C[C@]1(O)CC[C@H]2[C@@H]3CCC4=CC(=O)CCC4=C3[C@@H](c3ccc(N(C)C)cc3)C[C@@]21C [Mifepristone] | 0.813
40 | CC1CCOC2Cn3cc(C(=O)NCc4ccc(F)cc4F)c(=O)c(O)c3C(=O)N12 (stereo not given) | 0.751
